Reference: a compilation of properties of binary mixtures (doi:10.1016/j.fluid.2013.11.025)
The densities may have been worked out from excess volumes.

Experiment: xn = mol fraction of the nth substance listed
Settings: 101 kPa

CCCCCCCCCCCC[N+](CC)(CC)CC.O=S(=O)([N-]S(=O)(=O)C(F)(F)F)C(F)(F)F + CO
mass density [kg/m3]
Settings	x1 = 0.0108	x2 = 0.0308	x2 = 0.0798	x2 = 0.1664	x2 = 0.2879	x2 = 0.4047	x2 = 0.4925	x2 = 0.5951	x2 = 0.7403	x2 = 0.9008
283.15 K	846.8	–	1196.1	1192.4	–	1177	1168.6	1154.7	1121.6	1025.5
288.15 K	842.1	1194.3	1192	1188.3	1181.7	1173	–	1150.5	1117.3	–
293.15 K	–	1190.2	1188	1184.3	1177.6	1168.9	1160.4	1146.3	1113	1016.6
298.15 K	–	–	1184	–	1176.3	–	1156.3	1142.1	–	1012.1
303.15 K	827.9	1182.2	–	1176.3	1169.6	1160.8	1152.2	1138	1104.4	1007.6
308.15 K	823.2	–	–	1172.4	1165.6	–	1148.1	–	1100.1	–
313.15 K	818.4	1174.4	1172.2	–	1161.6	1152.7	1144	1129.6	–	998.5
318.15 K	–	1170.5	–	1164.5	1157.7	1148.7	–	1125.5	–	993.9
323.15 K	–	1166.6	1164.4	1160.5	–	1144.6	1135.8	1121.3	1087.3	989.4
328.15 K	803.9	1162.7	–	–	1149.7	1140.6	1131.8	1117.2	1083	984.8
333.15 K	799	1158.8	1156.6	1152.7	1145.7	–	1127.7	1113.1	1078.7	980.2
338.15 K	794.1	1154.9	1152.7	1148.8	1141.8	–	1123.6	1108.9	–	975.6

CCCCCCCC[N+](CC)(CC)CC.O=S(=O)([N-]S(=O)(=O)C(F)(F)F)C(F)(F)F + CO
Settings	mass density [kg/m3]
283.15 K, x2 = 0.0803	1256.9
283.15 K, x2 = 0.2016	1249.6
283.15 K, x2 = 0.2991	1242.2
283.15 K, x2 = 0.5998	1201.3
283.15 K, x2 = 0.7	1174.2
288.15 K, x1 = 0.0131	850.7
288.15 K, x2 = 0.0803	1252.7
288.15 K, x2 = 0.2016	1245.3
288.15 K, x2 = 0.2991	1238.1
288.15 K, x2 = 0.3982	1228.2
288.15 K, x2 = 0.5086	1213.6
288.15 K, x2 = 0.5998	1196.9
288.15 K, x2 = 0.7	1169.8
288.15 K, x2 = 0.7996	1125.9
288.15 K, x2 = 0.9001	1039.1
293.15 K, x2 = 0.0803	1248.5
293.15 K, x2 = 0.2016	1241.2
293.15 K, x2 = 0.2991	1233.9
293.15 K, x2 = 0.3982	1224
293.15 K, x2 = 0.5086	1209.3
293.15 K, x2 = 0.5998	1192.6
293.15 K, x2 = 0.7	1165.4
293.15 K, x2 = 0.7996	1121.3
293.15 K, x2 = 0.9001	1034.5
298.15 K, x1 = 0.0131	841.2
298.15 K, x2 = 0.0803	1244.4
298.15 K, x2 = 0.2016	1237.1
298.15 K, x2 = 0.2991	1229.7
298.15 K, x2 = 0.3982	1219.8
298.15 K, x2 = 0.5086	1205
298.15 K, x2 = 0.5998	1188.2
298.15 K, x2 = 0.7	1160.9
298.15 K, x2 = 0.7996	1116.8
303.15 K, x1 = 0.0131	836.4
303.15 K, x2 = 0.0803	1240.3
303.15 K, x2 = 0.5086	1200.7
303.15 K, x2 = 0.7	1156.5
303.15 K, x2 = 0.7996	1112.3
303.15 K, x2 = 0.9001	1025.2
308.15 K, x2 = 0.0803	1236.3
308.15 K, x2 = 0.2016	1228.9
308.15 K, x2 = 0.2991	1221.4
308.15 K, x2 = 0.5086	1196.4
308.15 K, x2 = 0.5998	1179.5
308.15 K, x2 = 0.7	1152.1
308.15 K, x2 = 0.9001	1020.5
313.15 K, x1 = 0.0131	826.9
313.15 K, x2 = 0.0803	1232.2
313.15 K, x2 = 0.2016	1224.8
313.15 K, x2 = 0.3982	1207.1
313.15 K, x2 = 0.5086	1192.2
313.15 K, x2 = 0.5998	1175.2
313.15 K, x2 = 0.7	1147.7
313.15 K, x2 = 0.7996	1103.3
313.15 K, x2 = 0.9001	1015.8
318.15 K, x1 = 0.0131	822
318.15 K, x2 = 0.0803	1228.1
318.15 K, x2 = 0.2016	1220.7
318.15 K, x2 = 0.2991	1213.1
318.15 K, x2 = 0.3982	1202.9
318.15 K, x2 = 0.5086	1187.9
318.15 K, x2 = 0.7	1143.3
318.15 K, x2 = 0.7996	1098.8
318.15 K, x2 = 0.9001	1011.2
323.15 K, x1 = 0.0131	817.2
323.15 K, x2 = 0.0803	1224.1
323.15 K, x2 = 0.2016	1216.6
323.15 K, x2 = 0.2991	1209
323.15 K, x2 = 0.3982	1198.7
323.15 K, x2 = 0.5086	1183.6
323.15 K, x2 = 0.5998	1166.6
323.15 K, x2 = 0.7	1138.9
323.15 K, x2 = 0.7996	1094.2
323.15 K, x2 = 0.9001	1006.5
328.15 K, x1 = 0.0131	812.3
328.15 K, x2 = 0.2013	1212.5
328.15 K, x2 = 0.2991	1204.8
328.15 K, x2 = 0.5086	1179.4
328.15 K, x2 = 0.5998	1162.2
328.15 K, x2 = 0.7	1134.5
328.15 K, x2 = 0.7996	1089.7
333.15 K, x1 = 0.0131	807.3
333.15 K, x2 = 0.0803	1216
333.15 K, x2 = 0.2016	1208.4
333.15 K, x2 = 0.2991	1200.7
333.15 K, x2 = 0.3982	1190.4
333.15 K, x2 = 0.5086	1175.2
333.15 K, x2 = 0.5998	1157.9
333.15 K, x2 = 0.7	1130.1
333.15 K, x2 = 0.7996	1085.2
333.15 K, x2 = 0.9001	997.1
338.15 K, x2 = 0.0803	1212
338.15 K, x2 = 0.2016	1204.3
338.15 K, x2 = 0.2991	1196.6
338.15 K, x2 = 0.3982	1186.2
338.15 K, x2 = 0.5086	1170.9
338.15 K, x2 = 0.7	1125.7
338.15 K, x2 = 0.7996	1080.6
338.15 K, x2 = 0.9001	992.3

CCCCCC[N+](CC)(CC)CC.O=S(=O)([N-]S(=O)(=O)C(F)(F)F)C(F)(F)F + CO
mass density [kg/m3]
Settings	x2 = 0.1188	x2 = 0.2988	x2 = 0.3842	x2 = 0.4936	x2 = 0.599	x2 = 0.6971	x2 = 0.8006	x2 = 0.8995	x2 = 0.9017	x2 = 0.975
283.15 K	1293.8	1278.6	–	–	1231.3	1200.7	1149.4	–	1051.5	896.9
288.15 K	1289.5	1274.3	–	1248.8	1226.8	1196.1	1144.8	1049.9	1046.7	892.1
293.15 K	1285.3	1270	1260.4	1244.4	–	1191.6	1140.2	–	1042	887.4
298.15 K	1281.1	1265.7	1256.1	–	–	1187.1	1135.6	1040.5	1037.3	882.6
303.15 K	1276.9	1261.4	1251.7	1235.6	1213.4	1182.5	1130.9	1035.7	–	877.8
308.15 K	–	1257.2	–	1231.3	1209	1178	–	1031	1027.8	873
313.15 K	1268.5	–	–	–	1204.5	1173.5	1121.7	1026.3	1023	868.2
318.15 K	1264.3	1248.6	1238.8	1222.5	1200.1	–	1117	1021.5	1018.3	863.3
323.15 K	1260.1	1244.4	1234.5	1218.2	1195.7	1164.4	–	1016.7	–	858.5
328.15 K	–	1240.1	1230.2	1213.8	1191.2	1159.9	1107.8	1011.9	–	853.6
333.15 K	1251.8	1235.9	1225.9	1209.5	1186.8	1155.4	1103.1	–	–	848.6
338.15 K	1247.6	1231.7	1221.6	1205.1	1182.4	–	1098.4	1002.3	999.1	843.6
